Data as given in article PMC4336329 (PLoS ONE, 2015).
Hit rate of the full screen: of about 310,000 compounds, about 14,000 (4.5%) showed an effect of 50% or more. The effect is printed as a negative number. The list shows a part of the results.

target: human ether-à-go-go-related gene (hERG) potassium channel (human, UniProt Q12809); test: primary screen, population patch clamp on CHO cells stably expressing hERG
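Further: peak tail current of the secondary pulse compared with the same well before compound.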

human ether-à-go-go-related gene (hERG) potassium channel, sequence (Q12809 whole entry, looked up): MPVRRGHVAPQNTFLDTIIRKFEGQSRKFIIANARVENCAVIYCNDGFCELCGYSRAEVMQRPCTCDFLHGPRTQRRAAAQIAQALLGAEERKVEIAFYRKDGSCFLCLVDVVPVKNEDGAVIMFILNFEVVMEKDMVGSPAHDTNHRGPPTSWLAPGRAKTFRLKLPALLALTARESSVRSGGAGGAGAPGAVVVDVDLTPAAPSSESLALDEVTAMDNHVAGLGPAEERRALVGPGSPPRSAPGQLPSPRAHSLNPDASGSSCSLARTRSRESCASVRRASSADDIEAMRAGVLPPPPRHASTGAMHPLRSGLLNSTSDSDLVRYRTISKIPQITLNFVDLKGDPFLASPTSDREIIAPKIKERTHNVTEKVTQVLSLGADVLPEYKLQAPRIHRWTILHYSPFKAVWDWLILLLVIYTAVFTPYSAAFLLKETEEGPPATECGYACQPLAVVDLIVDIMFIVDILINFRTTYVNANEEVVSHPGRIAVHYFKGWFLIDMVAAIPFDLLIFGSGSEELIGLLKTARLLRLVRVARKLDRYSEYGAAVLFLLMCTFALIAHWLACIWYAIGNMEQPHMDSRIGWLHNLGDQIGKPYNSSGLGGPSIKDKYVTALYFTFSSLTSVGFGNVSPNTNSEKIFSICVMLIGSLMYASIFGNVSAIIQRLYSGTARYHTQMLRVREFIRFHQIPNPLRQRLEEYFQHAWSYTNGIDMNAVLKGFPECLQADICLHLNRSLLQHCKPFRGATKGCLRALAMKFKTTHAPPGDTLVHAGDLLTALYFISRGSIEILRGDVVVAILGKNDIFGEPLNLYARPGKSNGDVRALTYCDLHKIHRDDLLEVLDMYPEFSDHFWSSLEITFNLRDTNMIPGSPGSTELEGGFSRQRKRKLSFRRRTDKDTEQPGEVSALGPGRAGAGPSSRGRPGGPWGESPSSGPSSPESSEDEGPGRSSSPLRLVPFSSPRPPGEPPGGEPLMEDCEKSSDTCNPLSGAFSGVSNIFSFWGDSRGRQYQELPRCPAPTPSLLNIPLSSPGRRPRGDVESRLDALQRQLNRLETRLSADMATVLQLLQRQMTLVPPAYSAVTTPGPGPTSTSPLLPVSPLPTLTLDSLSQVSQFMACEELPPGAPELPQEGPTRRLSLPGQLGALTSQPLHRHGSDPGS

| Compound | hERG current change (%, negative = inhibition) at 10uM [%] |
| --- | --- |
| CCN1CCN(c2oc(-c3ccc([N+](=O)[O-])cc3)nc2C#N)CC1 | -53.1 |
| CC(NC(=O)COC(=O)c1ccccc1Nc1ccccc1)c1ccccc1 (stereo not drawn) | 3.62 |
| Nc1nnnn1/N=C/c1cccc(Br)c1 | 2.91 |
| Cc1ccc([N+](=O)[O-])cc1S(=O)(=O)Nc1ccc(C(=O)NCc2ccccn2)cc1 | 11.7 |
| CCCCNC(=O)OCC(CC)NC(=O)OCC(C)C (stereo not drawn) | 5.18 |
| CN(CC(=O)N1CCCC1)S(=O)(=O)c1cccc(Cl)c1 | 9.85 |
| CCn1ncc(Br)c1C(=O)Nc1cc(C(=O)OC)ccc1C(=O)OC | -3.95 |
| CC(=O)Nc1ccc(S(=O)(=O)N2CCN(Cc3csc(C)n3)CC2)cc1 | 12.4 |
| Cc1nnc(NC(=O)C2CCCCC2)s1 | 15.8 |
| Br.COc1ccc(N=C/C=C2/C=C(c3ccccc3)OC(C)(C)O2)cc1 | -49.1 |
| O=C(Cc1ccccc1)NC(=S)Nc1ccc(N2CCCCC2)cc1 | 11.9 |
| CCn1c2ccccc2c2cc(NC(=O)c3coc(=O)c(Br)c3)ccc21 | 7.89 |
| CCN1CCCc2cc(CN(CCN3CCOCC3)C(=S)Nc3cccc(C)c3)ccc21 | 9.57 |
| O=C(CSc1ccccc1)Nc1ccc(-c2nc3ccccc3[nH]2)cc1 | 22.5 |
| CSc1ccccc1NC(=O)CN1CCN(c2ccccn2)CC1 | -20.1 |
| CCOc1cc(/C=C2\SC(=N)N(c3nccs3)C2=O)ccc1OCCN1CCOCC1 | -26.3 |
| CCn1cc(C(=O)NCc2cccnc2)c(=O)c2cc(F)c(N3CCN(C(=O)c4ccco4)CC3)cc21 | -37.6 |
| CCOC(=O)c1cnc(SC)nc1Sc1ccccc1Cl | 14.9 |
| COc1cccc(/C=N/NC(=O)c2[nH]nc3c2CCc2ccccc2-3)c1O | 12 |

| Compound | hERG current change (%, negative = inhibition) at 10uM [%] |
| --- | --- |
| O=C(NCCc1ccccc1)C(c1cccs1)N(C(=O)CCl)c1ccc(Cl)cc1 (stereo not drawn) | 1.35 |
| CN1CCN(c2ccc(NC(=O)c3ccc4c(c3)OCCO4)cc2Cl)CC1 | -81.2 |
| CC1=C(C(=O)N2CCOCC2)C(c2c(C)cc(C)cc2C)NC(=S)N1 (stereo not drawn) | 10.5 |
| Cc1ccc(C2/C(=C(/O)c3ccc4c(c3)CC(C)O4)C(=O)C(=O)N2CCCn2ccnc2)cc1 (stereo not drawn) | 0.311 |
| O=S1(=O)CCN=C2SC3=C(CCCC3)N21 | 1.25 |
| Cn1c(SCc2ccc(Br)cc2)nc2c(c1=O)SCC2 | -18.6 |
| CC(=O)Nc1ccc(S(=O)(=O)Nc2nc3ccccc3nc2N2CCc3ccccc3C2)cc1 | 3.02 |
| CC(C)CN1CCN(Cc2nc3ccccc3s2)CC1CCO (stereo not drawn) | -56.8 |
| COc1ccc(Cl)cc1NC(=O)Nc1ccc(C(=O)N2CCOCC2)cc1 | -6.56 |
| CC(Oc1ccccc1)C(=O)Nc1c2c(nn1-c1ccccc1)CS(=O)(=O)C2 (stereo not drawn) | 18.2 |
| COc1ccc(C)cc1S(=O)(=O)NC1CC1 | 27.1 |
| COC(=O)c1ccc(C(=O)OC)c(NC(=S)N2CCN(c3ccccn3)CC2)c1 | -6.96 |
| O=C(NNC(=O)C1C2CCCCC21)c1coc(=O)c(Br)c1 (stereo not drawn) | 7.28 |
| COCCCN1C(=O)C(=O)/C(=C(/O)c2ccc(OCC(C)C)cc2)C1c1cccnc1 (stereo not drawn) | 4.37 |
| c1ccc(-c2cn3nc(-c4ccccc4)cnc3n2)cc1 | 25.6 |
| CCn1c(COc2cccc3ccccc23)nnc1SCC(=O)OC1CCCCC1 | -2.91 |
| Cc1ccc(N=CC=C2OC(C)(C)C(C)(C)O2)cc1 | -3.88 |
| CCn1c(SCC(N)=O)nc2c(c1=O)C1(CCCC1)Cc1ccccc1-2 | -45 |
| CCC(CC)C(=O)NCc1cccnc1 | 9.85 |

| Compound | hERG current change (%, negative = inhibition) at 10uM [%] |
| --- | --- |
| Cc1ccc(C(=O)O)cc1S(=O)(=O)N1CCSCC1 | 9.81 |
| O=C(Cc1cc(=O)oc2cc(O)ccc12)N[C@@H](Cc1c[nH]c2ccccc12)C(=O)O | 11.1 |
| CNC(=O)COC(=O)c1cc(=O)[nH]c2ccccc12 | 8.36 |
| C=CCSc1nnc(NC(=O)CSc2nc(CCC)cc(=O)[nH]2)s1 | 1.71 |
| O=C(COC(=O)Cn1cnc2ccccc21)NCCCc1ccccc1 | 5.4 |
| O=P(O)(OCc1ccccc1)OCc1ccccc1 | 12.1 |
| CCOC(=O)c1ccc(NC(=O)CN2CCc3ccccc3C2)cc1 | -33 |
| O=C(NCc1ccccc1)c1ccc(C2SCC(=O)N2Cc2ccccc2)cc1 (stereo not drawn) | -12.6 |
| CC(=O)Oc1cccc2c1C(=O)c1c(OC(C)=O)cc(C(=O)O)cc1C2=O | 12.3 |
| Cc1occc1C(=O)NNC(=O)C1CC1 | 16.3 |
| CC1(NC(=O)C2CCN(C(=O)Nc3ccccc3)CC2)CCS(=O)(=O)C1 (stereo not drawn) | -7.07 |
| O=C(Nc1ccc(Cl)c(Cl)c1)Nc1nnc(CSc2ccccc2)s1 | 2.67 |
| O=S(=O)(c1ccccc1)N(Cc1cccc(F)c1)c1ccccc1 | 26.2 |
| S=C(Nc1ccccc1Oc1ccccc1)NC1CCCC1 | -0.79 |
| Nc1nonc1C(=O)N/N=C/c1ccc(-c2ccc(Cl)c(C(=O)O)c2)o1 | 5.51 |
| Cc1occc1C(=O)NCc1ccc2c(c1)OCO2 | 7 |
| CSc1nc(-c2ccc(Cl)cc2)nn1S(=O)(=O)c1ccccc1 | -1.41 |
| C[C@@H](C(=O)OCC(=O)NCCc1ccc(S(N)(=O)=O)cc1)N1C(=O)C2CCCCC2C1=O (stereo partly drawn) | 5.32 |
| COc1cccc(CN2CCC(Oc3ccc(C(=O)N4CCCCC4)cc3)CC2)c1O | -20.9 |
